Results published in PubChem BioAssay (NCATS).
The inconclusive results got no clear call from the source; some entries with a clear call stand among them for comparison. A potency beside an inconclusive call is a rough fit, not a confirmed value. Calls of active or inactive are those of the source. Calls follow the shape of the dose curve; as a rule, active = well fitted cell-killing curve with a large enough effect; inconclusive = small, poorly fitted or top-dose-only effect, or effect the other way; inactive = no such curve, though single readings can be large or run the other way.

Experiments:
[1] = Viability qHTS for spleen associated tyrosine kinase inhibitor (SYKi) naive MV4-11 cells (AID 1963823); conditions: MV4-11 AML viability, CellTiter-Glo luminescence, 72 h; viability (% of control): at 45 µM (top of the series); also: nearly all actives have a fitted effect of over 40% in size
How it was run: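 Read-out: CellTiter-Glo luminescence. Exposure: 72 hr, 37 C, 5% CO2, 95% humidity. Cells: MV4-11 without SYK inhibitor history, 500/well, qHTS format.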

[2] = Viability qHTS for spleen associated tyrosine kinase inhibitor (SYKi) drug resistant MV4-11 cells (AID 1963824); also: nearly all actives have a fitted effect of over 35% in size
How it was run: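 SYK-inhibitor-resistant MV4-11 AML cells were seeded at 500 per well onto compound and cultured 72 hours (37 °C, 5% CO2). CellTiter-Glo was then added, and after 10 min at room temperature, luminescence gave viability.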
Potency is read from the fitted curve at half-maximal effect; tags tell the direction and shape of the fitted curve.

Compound | Potency [1] | Potency [2] | viability (% of control) [1] | viability, % of control [2]
C=C1C(=O)O[C@@H]2C/C(C)=C\C(=O)/C=C(\C)[C@@H](OC(=O)/C(C)=C\C)[C@H](O)[C@@H]12 | inconclusive: 1.01 µM [cytotoxic, full curve, poor fit] | inconclusive: 0.805 µM [cytotoxic, full curve, poor fit] |  | 
CN(C)CCOc1ccc(-c2nc(-c3ccc4c(c3)CC/C4=N/O)c(-c3ccncc3)[nH]2)cc1 | inconclusive: 2.59 µM [cytotoxic, full curve] | inconclusive: 4.61 µM [cytotoxic, full curve] |  | 
Cc1cc(C)c(-c2csc(NC(=O)c3ccccc3)n2)c(C)c1 | active: 6.51 µM | active: 11.6 µM |  | 
CCC(C(C)O)n1ncn(-c2ccc(N3CCN(c4ccc(OCC5COC(Cn6cncn6)(c6ccc(F)cc6F)C5)cc4)CC3)cc2)c1=O (centres undefined) | inconclusive: 0.461 µM [cytotoxic, partial curve, poor fit] | inconclusive: 1.16 µM [cytotoxic, full curve, poor fit] |  | 
CN1C(=O)N(c2cc(Cl)cc(Cl)c2)C(=O)[C@]12CN(Cc1cc(C(=O)O)cs1)C[C@H]2c1ccc(C#N)cc1 | inconclusive: 23.5 µM [cytotoxic, partial curve] | inconclusive: 18.6 µM [cytotoxic, partial curve] |  | 
Cc1c2cc(c(C(=O)O)c1C)OC1OC(C(O)C(O)C1O)C(O)C(O)C1OC(O2)C(O)C(O)C1O (centres undefined) | inconclusive: 11.2 µM [cytotoxic, single point] | inconclusive: 8.93 µM [cytotoxic, partial curve, poor fit] |  | 
O=c1ccn(C2OC(CO)C(O)C2O)c(=O)[nH]1 (centres undefined) | inactive | active: 2.06 µM |  | 
CC(C)C[C@@H](N)C(=O)N[C@H]1C(=O)N[C@@H](CC(N)=O)C(=O)N[C@H]2C(=O)N[C@H]3C(=O)N[C@H](C(=O)N[C@H](C(=O)O)c4cc(O)cc(O)c4-c4cc3ccc4O)[C@H](O)c3ccc(c(Cl)c3)Oc3cc2cc(c3O[C@@H]2O[C@H](CO)[C@@H](O)[C@H](O)[C@H]2O[C@H]2C[C@](C)(N)[C@H](O)[C@H](C)O2)Oc2ccc(cc2Cl)[C@H]1O | inactive | inactive |  | 
Cc1noc(-c2ccc(-c3ccc(CC(=O)O)cc3)cc2)c1NC(=O)O[C@H](C)c1ccccc1 | inconclusive: 3.66 µM [cytotoxic, full curve, poor fit] | inconclusive: 4.11 µM [cytotoxic, full curve] |  | 
O=S(=O)(Nc1cc(Cl)c(Oc2cnc3ccccc3c2)c(Cl)c1)c1ccc(Cl)cc1Cl | inconclusive: 16.4 µM [cytotoxic, partial curve] | inconclusive: 25.9 µM [cytotoxic, partial curve] |  | 
C=C(C(=O)O)[C@@H]1CC[C@@]2(C)CC[C@H](O)[C@@]2(C(C)=O)C1 | inconclusive: 16.4 µM [cytotoxic, partial curve] | inconclusive: 20.6 µM [cytotoxic, partial curve] |  | 
CC1C2=CC(=O)OC2(O)CC2C1C(OC(=O)c1ccccc1)C(OC(=O)c1ccccc1)C1(O)C2(C)CCC(O)C1(C)C(=O)O (centres undefined) | inactive | inactive |  | 
COc1ccc([C@H]2OC[C@H]3[C@@H]2CO[C@@H]3c2ccc(O[C@@H]3O[C@H](CO)C(O)[C@H](O)[C@H]3O)c(OC)c2)cc1OC (some centres undefined) | inconclusive: 10 µM [cytotoxic, partial curve, poor fit] | inconclusive: 10 µM [cytotoxic, partial curve] |  | 
COc1ccc(CCN(C)CCCOc2nsc(-c3ccccc3)n2)cc1OC | inconclusive: 16.4 µM [cytotoxic, partial curve, poor fit] | inconclusive: 18.4 µM [cytotoxic, partial curve] |  | 
CCOC(=O)c1ccc(N(C)c2csc(-c3ccccc3)n2)cc1 | inactive | inactive |  | 
O=C(CCc1ccccc1)c1c(O)c([C@@H]2O[C@H](CO)[C@@H](O)[C@H](O)[C@H]2O)c(O)c([C@@H]2O[C@H](CO)[C@@H](O)[C@H](O)[C@H]2O)c1O | inactive | inactive |  | 
CCOC(=O)C(C#N)=C(c1ccccc1)c1ccccc1 | inconclusive: 8.41 µM [cytotoxic, partial curve, poor fit] | inconclusive: 9.44 µM [cytotoxic, partial curve] |  | 
CC(=O)OC[C@H]1O[C@H](O[C@]2(CO)O[C@H](CO)[C@@H](OC(=O)/C=C/c3ccccc3)[C@@H]2O)[C@H](O)[C@@H](O)[C@@H]1O | inconclusive: 0.356 µM [cytotoxic, full curve, poor fit] | inconclusive: 0.224 µM [cytotoxic, full curve, poor fit] |  | 
Cc1ccc(C(=O)N(CCCN)C(c2nc3cc(Cl)ccc3c(=O)n2Cc2ccccc2)C(C)C)cc1 (centres undefined) | inconclusive: 0.0073 µM [cytotoxic, full curve] | inconclusive: 0.0073 µM [cytotoxic, full curve] |  | 

Compound | Potency [1] | Potency [2] | viability (% of control) [1] | viability, % of control [2]
N[C@@H](Cc1cc(I)c(Oc2ccc(O)c(I)c2)c(I)c1)C(=O)O | inconclusive: 7.31 µM [cytotoxic, partial curve] | inconclusive: 20.6 µM [cytotoxic, partial curve] |  | 
Cc1ccc(NS(=O)(=O)c2cc3c(cc2NCCO)NC(=O)CC3)cc1C | inconclusive: 12.9 µM [cytotoxic, partial curve, poor fit] | inconclusive: 8.14 µM [cytotoxic, partial curve, poor fit] |  | 
C=CC(=O)Nc1cc(Nc2ncc(Cl)c(-c3c[nH]c4ccccc34)n2)c(OC)cc1N(C)CCN(C)C | active: 0.058 µM | active: 0.0146 µM |  | 
C=C1C2(C)CC3C4(C)OC(C5OC56C4=CC(=O)OC6(C)C)C3(C)C13C(=O)OC(C)C3(O)C2=O (centres undefined) | inactive | inactive |  | 
CCOC(=O)c1ccc(O)c(O)c1 | inconclusive: 15 µM [cytotoxic, partial curve, poor fit] | inconclusive: 13.3 µM [cytotoxic, partial curve, poor fit] |  | 
Cc1cc(C)c2c(c1)C(N(Cc1cc(C(F)(F)F)cc(C(F)(F)F)c1)c1nnn(C)n1)CCCN2CC1CCC(C(=O)O)CC1 (centres undefined) | inconclusive: 5.8 µM [cytotoxic, partial curve, poor fit] | inconclusive: 2.06 µM [cytotoxic, partial curve, poor fit] |  | 
CCOC(=O)CNC(=O)[C@@H]1CCCN1C(=O)Cc1ccccc1 | inconclusive: 23.1 µM [cytotoxic, partial curve] | inconclusive: 16.4 µM [cytotoxic, partial curve] |  | 
CCCN1CCC(c2cccc(S(C)(=O)=O)c2)CC1 | inconclusive: 20.6 µM [cytotoxic, single point] | inactive |  | 
CC(C)n1c(=O)c(C(=O)NC2CC3CCC(C2)N3C[C@@H](O)CN(C)S(C)(=O)=O)cc2ccccc21 (some centres undefined) | inconclusive: 16.4 µM [cytotoxic, single point] | inconclusive: 16.4 µM [cytotoxic, single point] |  | 
CCCC1=CC2=C(CO1)C(=O)C(C)(OC(=O)c1c(C)cc(OC)cc1O)C(O)C2 (centres undefined) | inconclusive: 3.99 µM [cytotoxic, partial curve, poor fit] | inconclusive: 1.26 µM [cytotoxic, partial curve, poor fit] |  | 
COc1cc(O)c(C(=O)CCc2ccc(O)cc2)c(O[C@@H]2O[C@H](CO)[C@@H](O)[C@H](O)[C@H]2O)c1 | inconclusive: 10 µM [cytotoxic, single point] | active: 11.2 µM |  | 
C=C1C(=O)O[C@H]2[C@H]1CC/C(C)=C/CC[C@@]1(C)O[C@@H]21 | inconclusive: 18.4 µM [cytotoxic, single point] | inconclusive: 14.6 µM [cytotoxic, partial curve] |  | 
C/C(=C\CCC1(C)C2CC3C(C2)C31C)C(=O)O (centres undefined) | inconclusive: 25.9 µM [cytotoxic, single point] | inconclusive: 14.6 µM [cytotoxic, partial curve, poor fit] |  | 
C[C@@H]1O[C@@H](O[C@H]2[C@H](O)[C@@H](O)[C@H](OC3CCC4(C)C5CCC(C)(C(CO)OC6OC(CO)C(O)C(O)C6O)CC5=CCC4C3(C)C)O[C@@H]2CO)[C@H](O)[C@H](O)[C@H]1O (some centres undefined) | inactive | inactive |  | 
C[C@@H]1O[C@@H](O[C@H]2[C@H](OC(=O)C34CCC(C)(C)CC3C3=CCC5C6(C)CC(O)C(O[C@@H]7O[C@H](CO)[C@@H](O)[C@H](O)[C@H]7O)C(C)(C(=O)O)C6CCC5(C)C3(CO)CC4)O[C@H](C)[C@H](O)[C@@H]2O)[C@H](O)[C@H](O)[C@H]1O[C@@H]1OC[C@@H](O)[C@H](O)[C@H]1O (some centres undefined) |  |  | inactive: 87% [at 9.25 µM] | inactive: 109% [at 9.25 µM]
CC1(C)[C@@H](O[C@H]2O[C@H](C(=O)O)[C@@H](O)[C@H](O)[C@H]2O[C@@H]2O[C@H](C(=O)O)[C@@H](O)[C@H](O)[C@H]2O)CC[C@]2(C)[C@H]3C(=O)C=C4[C@@H]5C[C@@](C)(C(=O)O)CC[C@]5(C)CC[C@@]4(C)[C@]3(C)CC[C@@H]12 | inactive | inactive |  | 
CC(C)=CCc1cc(O[C@@H]2O[C@H](CO[C@@H]3OC[C@](O)(CO)[C@H]3O)[C@@H](O)[C@H](O)[C@H]2O)ccc1O | inactive | inactive |  | 
CC(=O)O[C@@H]1C(O)C[C@@]2(C)C(CC[C@@H](C)C23Cc2c(O)cc4c(c2O3)CNC4=O)C1(C)C (some centres undefined) | inconclusive: 7.09 µM [cytotoxic, single point] | inconclusive: 10 µM [cytotoxic, partial curve] |  | 
